For 109 molecules, displacement results are on record in PubChem BioAssay AID1240 (Sanford-Burnham Center for Chemical Genomics, 2008).

Out of some 50,000 compounds screened, about 800 (1.6%) showed an effect of 50% or more. The list shows a part of the results.

This assay addresses Bcl-2-like protein 10 (Homo sapiens) (UniProt Q9HD36). The assay is described as follows: Phenotype converters, Bcl-B/TR3 peptide binding displacement, primary biochemical FP (AID 1240).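 Also: 0% = Bcl-B with tracer peptide and DMSO and 100% = tracer peptide lacking Bcl-B.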 The conditions noted are these: GST-Bcl-B / FITC-TR3 peptide fluorescence polarization; stronger effect = higher value; compound at 3.75 mg/L.
UniProt Q9HD36, sequence (Q9HD36 whole entry, looked up): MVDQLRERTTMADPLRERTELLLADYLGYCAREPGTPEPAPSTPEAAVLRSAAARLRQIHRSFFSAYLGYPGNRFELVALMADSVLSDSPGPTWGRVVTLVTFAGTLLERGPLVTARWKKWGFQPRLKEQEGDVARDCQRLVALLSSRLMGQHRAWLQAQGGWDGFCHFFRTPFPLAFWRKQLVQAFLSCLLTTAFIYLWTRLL
For `COc1cc(/C=C2\SC(N)=NC2=O)cc(OC)c1`, the displacement was -9.9%. For `COc1ccc(NC(=O)CN(c2ccc(C)cc2)S(=O)(=O)c2ccc(SC)cc2)c(OC)c1`, the displacement is -6.8%. As to `Cc1ccc(NCC(=O)N/N=C\c2cccc(O)c2)cc1`, the displacement is 5.1%. Consider `COc1cc(/C=N/NC(=O)CSCc2cc(C)cc(C)c2)cc(OC)c1OC`, for which the displacement was 6.1%. In the case of `CCn1c2ccccc2c2cc(NC(=O)COc3ccccc3)ccc21`, the displacement was -1.3%.

For `O=C(N/C(=C/c1ccco1)C(=O)N1CCCCC1)c1ccc([N+](=O)[O-])cc1`, the displacement is 0.7%. As for `O=C(CSc1n[nH]c(-c2ccccc2)n1)c1ccc(Br)cc1`, the displacement is 14.7%. For `CCOC(=O)C1=C(C)NC2=C(C(=O)CCC2)C1c1ccc(OCc2cccc(F)c2)c(OC)c1` (centres undefined) the value was -2.4%. For the molecule `COc1ccc(NC(=O)c2ccc(CN3CCN(c4ccccc4)CC3)cc2)cc1OC`, the displacement was -13.4%.

Regarding `CN(C)c1ccc(C2/C(=C(\O)c3ccc([N+](=O)[O-])cc3)C(=O)C(=O)N2CCCCCC(=O)O)cc1` (centres undefined), the displacement was found to be 24%. With `COc1c(Cl)cc(C(=O)Nc2nc(-c3ccccc3)cs2)cc1Cl`, the displacement amounted to 4.6%. As for `CC/C(=C/C(=O)c1ccncc1)Nc1ccc(OC)cc1`, the displacement is -4%. Next, `CCOc1ccc(C(=O)Nc2ccc(C)cn2)cc1`: 10.6%. Turning to `O=C1S/C(=C\c2ccc(Br)o2)C(=O)N1c1ccc(Cl)c(Cl)c1`, the displacement is -3.9%.

With `Cc1ccc(Cc2cnc(NC(=O)c3cccc([N+](=O)[O-])c3)s2)cc1`, the displacement came to 26.3%. On to `COc1ccc(C(=O)Nc2cc(C)cc(C)n2)cc1OC`, for which the displacement is 0.3%. Consider `COc1cccc(C2C(C(C)=O)=C(O)C(=O)N2CCN2CCNCC2)c1` (centres undefined), for which the displacement is -12.3%. In the case of `CCCOc1ccc2nc(C)c(CCC)c(Cl)c2c1`, the displacement is -0.7%. `O=C(CCCN1C(=O)/C(=C/c2cccc(Br)c2)SC1=S)NCCCN1CCOCC1`: the displacement was found to be 14.3%. For the molecule `Cc1cc(OCC(=O)Nc2sc3c(c2C#N)CCCC3)c(C(C)C)cc1Cl`, the displacement is -6.7%. Turning to `CC(C)(C)NC(=O)/C(=C\c1cccs1)NC(=O)c1cccs1`, the displacement is -2.3%. Take `COc1ccc(N(CC(=O)Nc2ccccc2Cl)S(C)(=O)=O)cc1Cl`: the displacement was 1.1%. For the molecule `CCOC(=O)c1c2c(n(C)c1CO)C(=O)C(=O)c1ccc(Br)cc1-2`, the displacement turned out to be 7.4%. Consider `O=C(NCCO)/C(=C\c1ccc(Cl)cc1)NC(=O)c1ccco1`, for which the displacement was -15.2%.

Consider `COc1cc(NC(=O)c2ccc(Cl)cc2)c(Cl)cc1NC(=O)C(C)Oc1ccccc1` (centres undefined), for which the displacement turned out to be 40.1%. Take `Cc1cc(=O)n(-c2ccc([N+](=O)[O-])cc2)[nH]1`: the displacement stood at 5.7%. As to `COC(=O)c1ccc(OCC(O)CN(Cc2ccccc2)Cc2ccccc2)cc1` (centres undefined), the displacement amounted to 2.9%. Next, `O=C(C(c1ccccc1)c1ccccc1)N1CCN(Cc2ccco2)CC1`: -6.6%. With `CC(=O)NC1=NC(=O)/C(=C\c2cccc(F)c2)S1`, the displacement was -29.1%. For the molecule `Cc1cc([N+](=O)[O-])ccc1-c1ccc(C(=O)Nc2ccc(N3CCOCC3)cc2)o1`, the displacement is -4.8%. With `Cc1sc2nc(SCCCC(=O)NCCO)[nH]c(=O)c2c1C`, the displacement was -0.1%. For `COc1ccc(-c2nnc(NC(=O)c3ccco3)s2)cc1` the value was 9.8%. In the case of `CCOc1ccccc1-c1nc(SCC(=O)O)n[nH]1`, the displacement was determined as 1.7%.

As for `Cc1cccc(N2C(=O)c3ccc(C(=O)Nc4cccc(O)c4)cc3C2=O)c1C`, the displacement turned out to be 16.8%. For `CC(=O)c1c(C)oc2c(Br)cc(NS(=O)(=O)c3ccccc3)cc12` the value was -2%; for `C#Cc1cccc(NC(=O)COc2ccccc2OC)c1`, -2.8%; for `CCOC(=O)c1ccccc1N(C(=O)C(F)(F)F)C1C=CS(=O)(=O)C1` (centres undefined), -3.1%. On to `CCOc1ccc(OCC)c(S(=O)(=O)NCCCN2CCOCC2)c1`, for which the displacement is -8%. `O=C1NC(=S)N/C1=C/c1cccc(OCc2ccccc2)c1`: the displacement turned out to be 1.2%. `COc1ccc(/C(O)=C/C(=O)C(F)(F)F)cc1`: the displacement came out at 5.8%. For the molecule `Cc1ccc(S(=O)(=O)/N=C2/NC(=O)/C(=C/c3ccco3)S2)cc1`, the displacement worked out at 33.6%.

Take `Cc1nn(-c2ccccc2)c2c1C(c1c(O)ccc3ccccc13)C(C#N)=C(N)O2` (centres undefined): the displacement came to 8.2%. Regarding `CCC(C(=O)Nc1nc2ccccc2s1)c1ccccc1` (centres undefined), the displacement amounted to 2.3%. Take `Cc1cc(/C=C2/NC(=S)NC2=O)c(C)n1-c1ccc(C(C)(C)C)cc1`: the displacement was found to be 8.6%. As for `CCN1C(=O)/C(=C\c2ccccc2C)SC1=S`, the displacement was 4.3%. With `CC(=O)C1=C(O)C(=O)N(c2nc3ccccc3s2)C1c1ccccc1Cl` (centres undefined), the displacement is -4.1%.

In the case of `COc1ccc(CNC(=O)CN(c2ccccc2)S(=O)(=O)c2ccccc2[N+](=O)[O-])cc1`, the displacement is 5.3%. Turning to `Cc1ccc2oc(C(=O)NCc3ccccc3)c(C)c2c1`, the displacement was -9.8%.

Turning to `CCOC(=O)c1ccc(-c2ccc(C(=O)Nc3cccc(NC(=O)c4ccccc4C)c3)o2)cc1`, the displacement was -17%.

Consider `COc1ccc(C(C)=O)cc1N1C(=O)C=CC1=O`, for which the displacement was 9.2%. As to `CCN(CC)C(=O)c1ccc(CN(c2ccc(OC)cc2)S(=O)(=O)c2ccccc2)cc1`, the displacement was -6.5%.

Turning to `COc1cc(NC(=O)/C=C/c2ccco2)ccc1NC(=O)c1ccco1`, the displacement is -2.4%. As to `CCN1C(=O)c2cccc3c(NC(=O)c4ccc(S(=O)(=O)N(C)C)cc4)ccc1c23`, the displacement is 84.1%. Regarding `COc1ccc(/C(O)=C2\C(=O)C(=O)N(CCc3ccccc3)C2c2ccc(OC)cc2)cc1` (centres undefined), the displacement worked out at 1%. Consider `CC1CN(c2ccc([N+](=O)[O-])cc2Cl)CC(C)N1/C(=N\O)c1nonc1N` (centres undefined), for which the displacement was determined as 3.6%. Next, `O=C1OC(c2cccs2)=N/C1=C\c1ccc(-c2ccccc2Cl)o1`: -12.6%; `O=C1N=C(N2CCCCC2)S/C1=C\c1ccc2c(c1)OCO2`: -1.7%. As to `COc1ccc(NC(=O)NC(C)c2cccc3ccccc23)cc1OC` (centres undefined), the displacement is -13%. As to `Cc1ccc(NC(=O)C2CC(=O)N=C(N)S2)cc1Cl` (centres undefined), the displacement turned out to be 10.4%. For `Cc1ccc2nsnc2c1NC(=O)/C=C/c1ccccc1` the value was 1.4%; for `COc1cc(/C=C2\SC(=O)N(c3c(C)n(C)n(-c4ccccc4)c3=O)C2=O)ccc1O`, -9%. Regarding `C=CCNC(=O)C(=O)Nc1cc(OC)ccc1OC`, the displacement amounted to 5.4%. As for `Cc1ccccc1OCCNC(=O)Cc1cccc2ccccc12`, the displacement was 11.2%. Turning to `O=c1c(-c2nc3ccccc3s2)c(C(F)(F)F)oc2cc(O)ccc12`, the displacement was -12.7%. As for `COc1ccc(-c2nc(SC(C)C(=O)Nc3c(C)cc(C)cc3C)n[nH]2)cc1` (centres undefined), the displacement is -20.1%. On to `Cc1cc([N+](=O)[O-])ccc1NC1CCC(c2ccccc2)CC1` (centres undefined), for which the displacement is -4.7%.

On to `CSc1nn(CN2CCCCC2)c(=S)s1`, for which the displacement was -20.2%. On to `C(=N\Nc1nnnn1-c1ccccc1)/c1ccc2c(c1)OCO2`, for which the displacement is -20.2%. On to `O=C(/C=C/c1ccc2c(c1)OCO2)c1ccc(F)cc1`, for which the displacement was -2.5%.

As for `Cc1ccc2c(Cl)c(-c3nnc(-c4ccc(Cl)cc4)o3)sc2c1`, the displacement is -13.2%. Regarding `CCCC(=O)Nc1nc(-c2ccc(C)c3ccccc23)cs1`, the displacement came to 5.7%. On to `O=C(COc1ccccc1[N+](=O)[O-])Nc1ccc2c(c1)Cc1ccccc1-2`, for which the displacement was -10.8%. For `COc1cccc(C2/C(=C(\O)c3ccccc3)C(=O)C(=O)N2CCN(C)C)c1` (centres undefined) the value was 1.1%; for `Cc1cc(OCC(=O)NC(C)c2ccccc2)cc(C)c1Cl` (centres undefined), 1.4%. As for `Cc1ccccc1CNC(=O)c1ccccc1`, the displacement stood at 6.8%. In the case of `N#Cc1c2n(c3c(=O)n(CC(=O)c4ccc(Br)cc4)cnc13)CCCC2`, the displacement was -11.7%.

Consider `COc1ccc(N(CC(=O)NC2CCCCC2)S(=O)(=O)c2ccc(C)cc2)cc1OC`, for which the displacement came to 4.4%. Next, `Cn1c2ccccc2c2nnc(SCc3ccccc3Cl)nc21`: 10.6%; `CCOC(=O)c1sc2ncc([N+](=O)[O-])c(NC)c2c1N`: -10.1%. In the case of `CCOc1cccc(/C=C2\C(=O)NN(c3ccccc3)C2=O)c1O`, the displacement came to 13.1%. Regarding `O=C(NCCOc1ccccc1F)c1cc(F)c(F)cc1Cl`, the displacement was found to be 12.2%. Consider `COc1ccc(CC(=O)O/N=C(\N)Cc2ccc([N+](=O)[O-])cc2)cc1OC`, for which the displacement is 14.2%. As to `CCOc1ccc2nc(SC3CC(=O)N(c4ccccc4I)C3=O)sc2c1` (centres undefined), the displacement was -29.6%. For `CC(=O)CC(=O)Nc1ccc(Br)cc1` the value was 13%; for `Clc1ccc(CSc2nnnn2-c2ccccc2)cc1`, 4.7%; for `COc1cc([N+](=O)[O-])ccc1NC(=S)NC(=O)c1ccco1`, -0.2%. For `COc1cc(NC(=O)[C@@H]2C3C=CC(C3)[C@@H]2C(=O)O)c(OC)cc1Cl` (some centres undefined) the value was 11.8%. Consider `O=C(Nc1ccc(S(=O)(=O)N2CCCCC2)cc1)c1cccc([N+](=O)[O-])c1`, for which the displacement was 6.8%. On to `COC(=O)C(NC(=O)C(C)(C)C)C12CC3CC(CC(C3)C1)C2` (centres undefined), for which the displacement came to 6.1%. Turning to `CCOc1ccc(-n2nc3ccc(NC(=O)c4ccco4)cc3n2)cc1`, the displacement was -10.3%. For `O=C1c2ccccc2NC(c2cccc([N+](=O)[O-])c2)N1O` (centres undefined), the displacement amounted to 11%. In the case of `COC(=O)/C=C1/N/C(=N/c2nc3ccccc3o2)NC1=O`, the displacement was -4.2%. As to `O=C(Cc1ccccc1)Nc1ccc2oc(-c3ccc(Cl)cc3Cl)nc2c1`, the displacement was 12.8%. Turning to `COc1ccc(CCNC(=O)C(=O)NCc2cccnc2)cc1`, the displacement was -2.9%. `O=C(NNC(=O)c1cccc2ccccc12)c1cccc(Cl)c1`: the displacement was -13.5%.

With `O=C1C(c2ccccc2)C(c2cccs2)NC(c2cccs2)C1c1ccccc1` (centres undefined), the displacement stood at 15.7%. With `COCCCNC(=O)CN(c1ccc(Cl)cc1)S(=O)(=O)c1ccccc1`, the displacement was 12.6%. In the case of `COC(=O)COc1ccc2c(=O)c(Oc3ccc(C(C)(C)C)cc3)coc2c1`, the displacement was 8%. Take `COc1ccc(/C=C2/Sc3ccccc3C2=O)cc1Br`: the displacement is 116%.

`COc1ccc(CCNC(=O)c2ccc([N+](=O)[O-])c(C)c2)cc1OC`: the displacement was determined as 5.9%. Regarding `CC1CCN(C(=O)c2ccc(N3C(=O)c4ccccc4C3=O)cc2)CC1`, the displacement is -11.9%. For the molecule `Cc1cccc(C(=O)Nc2ccc(NC(=O)COc3ccccc3C)cc2)c1`, the displacement came out at 1.7%.

On to `COC(=O)CN1C(=O)/C(=C\c2ccc(F)cc2)SC1=S`, for which the displacement worked out at 1.2%. In the case of `Cc1ccc(CN2CCN(/N=C\c3cc(Br)ccc3O)CC2)cc1`, the displacement is -6%. As for `COc1c(Cl)cc(C(=O)Nc2cc(-c3nc4cc(Cl)ccc4o3)ccc2C)cc1Cl`, the displacement came to 7.7%. Consider `CC1CCC(C(C)C)C(OC(=O)C[n+]2cccc(C(N)=O)c2)C1` (centres undefined), for which the displacement turned out to be 5.2%. For the molecule `CCOC(=O)c1ccc(NC(=NC)SC2CC(=O)N(c3ccccc3F)C2=O)cc1` (centres undefined), the displacement is -4.5%. Next, `Cc1ccc(C)c(NC(=O)CSc2nc3ccccc3s2)c1`: -14.8%; `CNc1nc(Nc2ccccc2)nc(OCC(F)(F)F)n1`: -3.9%.
